Source: patent publication US12509496B2 (Shanghai Minwei Biotechnology Co., LTD, priority 2020, dated 2025)

Assay: Body weight reduction by multiple subcutaneous injections in DIO mice
Format: in vivo, C57BL/6Nju mice
Description: In this example, the effect of subcutaneous injection of the Fc fusion protein 1 on the body weight of DIO mice was studied, and the efficacy was compared with dulaglutide and semaglutide.
7-week-old C57BL/6Nju mice were fed with a high-fat diet (of about 20% protein and about 60% fat) for 12 weeks for modeling. Feeding conditions: 12 hours of light and 12 hours of darkness every day, ad libitum to feed and water, temperature 20-25° C., relative humidity 40-70%, ventilation frequency 10-15 times/hour.
According to body weight, water consumption, and food intake, the mice were randomly divided into groups the day before administration. Group design: 30 nmol/kg dulaglutide group, 30 nmol/kg semaglutide group, high dose (30 nmol/kg) group and low dose (10 nmol/kg) group of the same test sample, normal control group, model control group. A total of 6 groups with 6 mice in each group.
The subcutaneous injection was conducted as follows: the model control group and the normal control group were administrated with 0.05 ml/10 g body weight of PBS, twice a week for 4 consecutive weeks, a total of 8 times of administration. The body weight, food intake, and water consumption of mice were monitored regularly.
After the administration, the animals were dissected, and the liver, kidney, pancreas, inguinal fat, subcutaneous fat, scapular fat, perirenal fat, mesenteric adipose, and epididymal fat were separated and weighed. The data were shown as mean±standard error (X±s), and statistically analyzed by Student-t test.

B1: Fc fusion protein 1: GLP-1 mutant (SEQ ID NO: 7) fused by linker to IgG4 Fc fragment; SEQ ID NO: 12 (protein)
chain: HSQGTFTSDYSKYLDEQAAKEFIAWLIAGGPSSGAPPPSGGGGGSGGGGSGGGGSA[human IgG4 Fc with S228P F234A L235A (EU numbers) omitted]
modifications: Fc Fusion Protein 1
- weight reduction effect, low dose (10 nmol/kg s.c. twice a week for 4 weeks, compared with 30 nmol/kg semaglutide): equivalent to that of the semaglutide high dose group
- weight reduction effect, high dose (30 nmol/kg s.c. twice a week for 4 weeks, compared with 30 nmol/kg semaglutide): significantly better weight reduction effects than those of the same dose of semaglutide
- food intake (10 and 30 nmol/kg s.c., compared with semaglutide group): could reduce the food intakes of mice at different doses, and the food intakes were all fewer than those of the semaglutide group
- fat mass (after 4 weeks of administration, compared with semaglutide): could significantly reduce the fat mass of DIO mice, and the effect was equivalent to semaglutide
